Test results: publication PMC5540273 (PLoS ONE, 2017)
Shown are results outside the selection of strong results, which stands elsewhere.

tested on: PRKD2; details: concentration: 1 μM,replicates: in singlicate; n = 1
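Also: KINOMEscan kinase panel screen.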

Compound	%Inh [%]
O=C1NC(=O)C(c2ccc(Cl)cc2)=C1Nc1ccc(O)c(Cl)c1 [SB-405367]	0
O=C1NC(=O)C(c2ccc(Cl)cc2)=C1Nc1ccccc1 [SB-317661]	0
COc1cccc(C2=C(Nc3ccc(SC)cc3)C(=O)NC2=O)c1 [SB-331032]	0
Cc1ccc(C)c(Oc2nccc(-c3c(-c4ccc(F)cc4)ncn3C3CCNCC3)n2)c1.O=C(O)C(F)(F)F.O=C(O)C(F)(F)F.O=C(O)C(F)(F)F [SB-284852]	6
O=C1NC(=O)C(c2ccccc2Cl)=C1Nc1cccc(C(=O)O)c1 [SB-390526]	21
O=C1NC(=O)C(c2ccccc2)=C1Nc1cc(Cl)c(O)c(Cl)c1 [SB-390530]	2
CSc1ccc(NC2=C(c3cccc(Cl)c3)C(=O)NC2=O)cc1 [SB-341528]	0
O=C1NC(=O)c2c1c(-c1ccccc1)cc1[nH]c3ccc(O)cc3c21	0
Cc1cc(C)cc(Oc2nccc(-c3c(-c4ccc(F)cc4)ncn3C3CCNCC3)n2)c1.O=C(O)C(F)(F)F.O=C(O)C(F)(F)F.O=C(O)C(F)(F)F [SB-284851]	0
COc1ccc(C2=C(Nc3cccc(Cl)c3)C(=O)NC2=O)cc1 [SB-326892]	3
O=C(O)c1ccc(-c2nc(-c3ccc(F)cc3)c(-c3ccncc3)[nH]2)cc1 [SB-202620]	11
O=C1NC(=O)C(c2ccccc2)=C1Nc1ccc(Cl)c(C(=O)O)c1 [SB-390532]	4
O=C1NC(=O)C(c2ccc(Cl)cc2)=C1Nc1cccc(C(=O)O)c1 [SB-360737]	0
